According to ChEMBL document CHEMBL4888484, “Replenishing the malaria drug discovery pipeline: Screening and hit evaluation of the MMV Hit Generation Library 1 (HGL1) against asexual blood stage Plasmodium falciparum ,using a nano luciferase reporter read-out” (2022):
Among all 150,000 compounds or so, about 540 (0.36%) showed an effect of 50% or more. This is one part of the list.

Test system: Plasmodium falciparum
Experiment: Primary screen in NF54 nanoGlo assay, in single point, at 2uM, 72h; a lower Z score goes with more inhibition
Type: functional, Erythrocyte
Details: timepoint 72 hour

Row | SMILES | % Inhibition [%] | Z score
1 | CCCc1cc(CNS(=O)(=O)c2cc(-c3ccno3)ccc2OC)on1 | -25 | 2.17
2 | CCCc1nc(C)c(CNC(=O)c2nc(C(C)C)cs2)s1 | 26 | -3.25
3 | CCn1nc(C)c(CCN(C)C(=O)Nc2ccc3c(c2)OCCO3)c1C | -6 | 0.63
4 | COC(=O)N1CCC(NCc2c(C)c(C#N)n3ccccc23)CC1 | -2 | 0.37
5 | Cc1ccc(-n2nc(C(=O)c3ccc(Cl)cc3)c(C#N)c2-c2ccccc2)cc1 | -7 | 0.78
6 | CCOC(=O)Nc1ccc(Br)cn1 | 1 | -0.23
7 | O=C(c1cc(=O)c(OCc2cccc(Cl)c2)c[nH]1)N1CCc2ccccc2C1 | -3 | 0.47
8 | Fc1cccc2c(N3CCN(Cc4cccs4)CC3)ncnc12 | -33 | 5.4
9 | O=C(Nc1ccc(Cl)cc1C(F)(F)F)[C@H](NC1CCCCCCC1)c1ccccc1 | -14 | 2.36
10 | O=C(O)c1cncc(-n2ccnc2-c2ccnc3ccccc23)c1 | -18 | 2.85
11 | COc1ccc(C/C(=N\NC(=O)OC(C)(C)C)NCC(F)(F)F)cc1 | -3 | 0.36
12 | COCCN(CC1(C)CCOCC1)C(=O)NCc1cccc(F)c1 | -10 | 1.61
13 | Cc1ccc(S(=O)(=O)N2C(=O)CC[C@H]2C(=O)N2CCC(Cc3ccccc3)CC2)cc1 | -17 | 2.35
14 | CCOC(=O)[C@@H](c1cc(Cl)cc(Cl)c1)N(CC)Cc1csc(CC(=O)NC)n1 | 0 | -0.05
15 | CN(Cc1ccccn1)c1ccc(C(=O)NC2CCCC2)nn1 | 0 | 0.03
16 | O=C(O)CN(CCc1ccc(Cl)cc1)CC1CC1 | -4 | 0.36
17 | CCOC(=O)C1CCN(c2nc(-c3ccc4c(c3)OCO4)c3c(N)n(-c4ccc(Cl)cc4)nc3n2)CC1 | -20 | 2.92
18 | Cc1nc(CC(=O)Nc2ccc(N3CCCCC3)cn2)c(C)s1 | -8 | 1.63
19 | CCC[C@H](NC(=O)c1ccccc1)c1nc(-c2ccnn2C)cs1 | 4 | -0.42
20 | O=C(COc1ccccc1Cl)NCc1cc2n(n1)CCCNC2 | 2 | -0.4
21 | COC(=O)c1cn([C@H]2CCCC[C@@H]2O)nn1 | -1 | 0.14
22 | COc1ccc(C)cc1S(=O)(=O)[C@H]1CS(=O)(=O)C[C@@H]1N1CCOCC1 | 6 | -0.79

Row | SMILES | % Inhibition [%] | Z score
23 | Cc1nn(C)c(C)c1CCC(=O)N(Cc1ccco1)[C@@H](C)C(C)C | 18 | -2.26
24 | COC(=O)C1(NCc2ncccc2C)CCC1 | 4 | -0.47
25 | O=C(Nc1nc2ccc(F)cc2s1)c1ccc(CN2CCOCC2)cc1 | 5 | -0.72
26 | CC[C@@H]1Oc2ccc(NC(=O)COC)cc2CN(CCc2ccc(F)cc2)C1=O | 13 | -1.21
27 | CCc1nc(N2CC(OCc3ccccc3F)C2)ncc1C | 2 | -0.35
28 | CC(C)C(=O)Nc1ccc2c(c1)nc1n2CC(=O)N(C[C@@H]2CCCN3CCCC[C@H]23)C1 | -21 | 2.69
29 | OC12CCCCC1C(c1ccc3c(c1)OCO3)NCC2 (configuration not stated) | 1 | -0.21
30 | COc1cccc(CNc2ccc(N3CCOCC3)nc2)c1OC | -7 | 1.19
31 | c1ccc2[nH]c(Cn3cc([C@H]4CCOC4)nn3)cc2c1 | -12 | 2.28
32 | Cc1cc(NC(=O)CS(=O)(=O)C(C)(C)C)nn1C | -7 | 0.9
33 | CCCC1(C)NC(=O)N(CCC2CCCCN2C)C1=O (configuration not stated) | -13 | 1.7
34 | c1ccc(CN2CCC[C@H]2c2nc(-c3ccnc4ccnn34)no2)cc1 | 1 | -0.19
35 | Cn1nc2nc(NC3CCCCC3)nc(-c3ccccc3Cl)c2c1N | -8 | 1.55
36 | CCCN(Cc1cc(-c2cccs2)on1)C(=O)Nc1ccccc1 | -3 | 0.44
37 | CCC(C)(C)NC(=O)[C@H]1CCCN(C2CCN(Cc3ccncc3)CC2)C1 | 0 | -0.03
38 | Cc1n[nH]nc1C(=O)NCCCC[C@H]1CCCO1 | -26 | 2.61
39 | CC(C)Cn1cnnc1C1CCCN1CC(=O)NCC1CCCO1 (configuration not stated) | 5 | -0.75
40 | Cc1ccc(CNC(=O)CC(C)(C)Cc2nnc3c(=O)n(-c4cccc(F)c4)ccn23)cc1 | -3 | 0.42
41 | Cc1cccc(OCC(=O)N2CC[C@H](N3C(=O)COC3=O)C2)c1 | -10 | 1.65
42 | CN(CC(N)=O)S(=O)(=O)C[C@]12CC[C@@H](CC1=O)C2(C)C | -5 | 0.83
43 | O=C(c1cnnn1-c1cccc(F)c1)N1CCCC12CCC2 | -1 | 0.15
44 | COC[C@@]12CCN(C(=O)c3nccc4ccccc34)C[C@@H]1CN(C(C)=O)C2 | -10 | 1.2

Row | SMILES | % Inhibition [%] | Z score
45 | CC(C)=CCN1C(=O)[C@@H]2CC[C@H]1CN(C(=O)Cc1cccnc1)C2 | -4 | 0.8
46 | Cc1nn(C)c2ncc(-c3nc([C@H]4CCOC(C)(C)C4)no3)cc12 | 5 | -0.93
47 | O=C(Nc1ccc2c(c1)C(=O)NC2)c1ccc(=O)[nH]n1 | -2 | 0.33
48 | Cc1cc(C)cc(NC(=O)CCc2c(C)[nH]c(=O)c(C#N)c2C)c1 | 7 | -1.3
49 | CC(=O)N1c2ccccc2C(=O)[C@@H]1N1CCN(c2ccc(Cl)cc2)CC1 | -3 | 0.45
50 | COCCOCC(=O)N1CCc2c(c(-c3nncn3-c3ccccc3)nn2C)C1 | 4 | -0.54
51 | CC[C@H](NCC1OCCO1)c1cccs1 | -5 | 0.63
52 | Cc1c(Cl)cccc1S(=O)(=O)N(Cc1ccc(F)cc1)c1ccc2[nH]c(=O)[nH]c2c1 | 7 | -0.92
53 | CC(=O)N1CC[C@H](C(=O)Nc2ccc3[nH]ncc3c2)C1 | -11 | 1.47
54 | Cc1onc(C2CC2)c1C(=O)NCc1cccnc1OCC(F)F | -5 | 0.62
55 | Cn1c(Nc2c3ccccc3nc3ccccc23)cc(=O)n(C)c1=O | 29 | -3.22
56 | CCN(CCc1nccs1)Cc1nccn1C | -4 | 0.38
57 | CC(C)(C)CC(=O)N[C@H]1C[C@H]2C(=O)Nc3cc(Cl)ccc3C(=O)N2C1 | 31 | -3.48
58 | CN(C(=O)c1csc2ccccc12)[C@H]1CS(=O)(=O)C[C@@H]1O | -6 | 0.57
59 | O=C(NCCCCN1CCOCC1)NCC1(c2ccccc2)CC1 | -36 | 4.18
60 | CC(C)c1nnc(Cn2cnc3c2c(=O)n(C)c(=O)n3C)s1 | -1 | 0.08
61 | O=S1(=O)NC(CN2CCN(CC(F)F)CC2)=Nc2ccccc21 | -4 | 0.8
62 | C[C@H]1CCCN(c2c(C#N)c(=O)n(C)c(=O)n2C)CC1 | -11 | 1.44
63 | COCCC1(c2noc(-c3cn([C@@H]4COC[C@H]4OC)nn3)n2)CCC1 | 5 | -0.68
64 | Cc1ccc(CS(=O)(=O)Nc2ccc(N(C)C)nc2)cc1F | -7 | 1.26
65 | CCCCc1c(C)nc(N)nc1NCCc1cscn1 | 7 | -1.45
66 | CC1(C)CCC[C@H](NC(=O)c2cccnc2O)C1 | -5 | 0.93

Row | SMILES | % Inhibition [%] | Z score
67 | Cc1ccc(C)c(NC2=NC(N)=NC3(CCCCC3)N2)c1 | 1 | -0.07
68 | CC1Cc2ccc(F)cc2CN1CC1CCCN(S(C)(=O)=O)C1 (configuration not stated) | 8 | -1.39
69 | Cc1ncn(CCc2cn(C)nn2)c1C | -3 | 0.5
70 | CCOC(=O)C[C@H]1COCCN1Cc1c[nH]nc1-c1ccc2cc(OC)ccc2c1 | 4 | -0.38
71 | COCc1nc([C@H]2CCOC2)cc(N(C)Cc2csc(C(C)C)n2)n1 | 0 | 0.05
72 | COC[C@H]1CCCN1[C@@H]1[C@H](O)[C@H](CO)O[C@@H]1CNS(=O)(=O)c1ccc(Cl)cc1 | 16 | -1.83
73 | Cc1ccc(CCCCC(=O)N[C@@H](C)c2ccncc2)cc1 | 0 | -0.06
74 | COc1cc(-c2noc(CCC(=O)O)n2)ccc1OCc1ccccc1 | 26 | -2.96
75 | COc1ccccc1CNC(=O)CN1CCN(C)c2ccc(F)cc21 | 0 | 0.05
76 | Cc1cnc(N2CCn3nc(CO)cc3C2)nc1N(C)C | -23 | 2.04
77 | COc1cccc2sc(OC3CN(C(=O)c4cccs4)C3)nc12 | -6 | 0.96
78 | O=C(N[C@@H](Cc1ccccc1)C(=O)O)C1COc2ccccc2O1 (some centres not stated) | -9 | 1.08
79 | O=C(Cc1cccnc1)NC[C@H]1Cn2cc(-c3ccccc3)nc2CO1 | -4 | 0.67
80 | CCN(C)c1ccccc1CNC(=O)NC1CC2CCC1O2 (configuration not stated) | 4 | -0.36
81 | COc1cn(CC(N)=O)c(CN2CCCCC2)cc1=O | -7 | 1.27
82 | CC(C)(C)[C@@H]1CN(C(=O)c2c[nH]nn2)CCO1 | -14 | 2.15
83 | CCCCCn1c(NCc2cc(Cl)ccc2O)nc2ccccc21 | 35 | -2.27
84 | CC1(C)CCN(C(=O)[C@@H]2NCc3ncncc32)CC1 | -5 | 1
85 | O=C(COc1cccc2c1CCC[C@@H]2O)Nc1cccc(S(=O)(=O)N2CCCC2)c1 | -13 | 1.72
86 | CC[C@H](C)c1ccc(O)c(NC(=O)COc2ccc(Cl)cc2-n2cnnc2)c1 | -6 | 0.84
